Test results: PubChem BioAssay AID445 (National Center for Advancing Translational Sciences (NCATS), 2006)
The campaign covered roughly 110,000 compounds. About 40 (0.04%) were called active. The inconclusive results got no clear call from the source; some entries with a clear call stand among them for comparison. Calls follow the shape of the dose curve; as a rule, active = well fitted curve in the direction sought with a large enough effect in the signal ratio (not every such curve was filed as active); inconclusive = small, poorly fitted or top-dose-only effect, or a change in a side signal; inactive = flat fitted curve, though single readings scatter; the % refers to the signal ratio. Where the call is inconclusive, the potency comes from a doubtful curve fit.

Test: IkB Signaling;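 as to IkBa stabilization activation: 0% = basal untreated cells and 100% = reference inhibitor full response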
Conditions: ABC-DLBCL IkBa-CBG/CBR dual luciferase ratio (green luciferase fused to IkBa over red control in OCI-Ly3 lymphoma cells), 4 h; IkBa stabilization activation: at 57.1 µM (top of the series), scaled: untreated 0%, proteasome inhibitor 100% unless noted
Outline: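 Luminescence ratio of IκBα-fused green versus native red beetle luciferase in OCI-Ly3 cells, 4 h post-doxycycline with compound; red signal alone, scaled from basal (0%) to zero light (-100%), flagged nonspecific or cytotoxic effects.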
Potency is read from the fitted curve at half-maximal effect.

Structure (SMILES)	Potency	IkBa stabilization activation
Clc1ccccc1Cn1nnc2c(Nc3ccccc3)ncnc21	inconclusive: 25.1 µM [signal inhibitor, partial curve]	
Cc1oc(-c2ccc(Cl)cc2)nc1Cn1c(=O)cc(-c2ccccc2)c2c(C)nn(C)c21		inactive
Cc1cccc(NC(=O)Cn2c(=O)oc3ccccc32)c1		inconclusive: 5.57% [signal inhibitor]
O=C(NC1CCCC1)c1cc(-c2cccs2)on1	inconclusive: 25.1 µM [rising, partial curve]	
COc1ccc(-n2c(=O)c(-c3ccccc3)nc3cnc(N4CCN(C)CC4)nc32)cc1		inactive: -3.8% [at 11.4 µM, scaled: untreated 0%, proteasome inhibitor 100%]
COC(=O)CC1C(=O)NCCN1C(=O)CSc1nnc(Nc2ccc(OC)cc2)s1 (configuration not stated)		inactive
CCN1CCN(C(=O)c2ccc3c(c2)N(Cc2cc(C)ccc2C)C(=O)c2ccccc2S3=O)CC1 (configuration not stated)		inconclusive: 1.14% [signal inhibitor]
CCCCC/C=C\C[C@H](O)/C=C\c1cccc(C[C@H](O)CCCCO)n1		inactive
COC(=O)c1cc(NC(=O)CN(c2ccccc2)S(=O)(=O)N(C)C)ccc1Cl		inconclusive: 13.7% [signal inhibitor]
NS(=O)(=O)c1ccc(CCNc2nc3c(-c4cccc(F)c4)nnn3c3ccc(Cl)cc23)cc1	inconclusive: 0.501 µM [rising, partial curve]	
CCOc1ccccc1NC(=O)Cn1nnc2sc3c(c2c1=O)CCC(C(C)(C)C)C3 (configuration not stated)		inconclusive: -1.82% [signal inhibitor]
O=C(CCCCn1c(=O)[nH]c2ccsc2c1=O)N1CCN(c2cccc(Cl)c2)CC1		inconclusive: 5.23% [signal inhibitor]
Nc1ccc(N(S(=O)(=O)c2ccccc2)S(=O)(=O)c2ccccc2)c(Cl)c1		inactive: -1.89% [at 11.4 µM, scaled: untreated 0%, proteasome inhibitor 100%]
CCCCN(CCCC)S(=O)(=O)c1ccc2oc(C(=O)NCc3ccccc3)c(C)c2c1		inconclusive: -1.05% [signal inhibitor]
Cc1cc(C)c(/C=C/c2onc(C)c2S(=O)(=O)N2CCC(C(=O)NCc3ccco3)CC2)c(C)c1		inconclusive: 1.49% [signal inhibitor]
O=C(CN1C(=O)C2(SCC(=O)N2c2cccc(Cl)c2)c2ccccc21)NC1CCCCC1 (configuration not stated)		inactive
Cc1cc(C(=O)Nc2ccccn2)cs1		inactive
CCOC(=O)N1CCN(C(=O)CN(c2ccc(C)cc2C)S(=O)(=O)c2ccccc2)CC1		inconclusive: -1.61% [signal inhibitor]
NNC(=O)CCSc1ccccc1		inactive: 2.04% [at 11.4 µM, scaled: untreated 0%, proteasome inhibitor 100%]
Cc1cccc(NC(=O)CSc2nc(C)c(Cc3ccccc3)c(=O)[nH]2)c1	inconclusive: 31.6 µM [signal inhibitor]	
O=C(CN1C(=O)C2C3C=CC(C3)C2C1=O)Nc1cccc2c1CCCC2 (configuration not stated)		inactive

Structure (SMILES)	Potency	IkBa stabilization activation
C=CCSc1nc2c(c(=O)n(C)c(=O)n2C)n1CC		inactive
COc1ccc(-c2nc(CNS(=O)(=O)c3ccc(F)cc3)cs2)cc1		inactive
COc1ccccc1N1CCN(C(=O)c2c3c(nc4ccccc24)C(=O)N(C2CCCCC2)C3)CC1		inconclusive: 7.41% [signal inhibitor]
CCC(C)NC(=O)c1sc2nc(C)c(C(=O)Nc3ccc(Cl)cc3)c(-c3ccc(Br)cc3)c2c1N (configuration not stated)		inconclusive: 11% [signal inhibitor]
COc1ccc2cc(CNc3ccc(OC)c(OC)c3)c(=O)n(CC(=O)Nc3ccc(C)cc3)c2c1		inactive
CCc1ccc(NC(=O)c2ccc(CN3C(=O)C(C)=C(c4ccc(C)cc4)S3(=O)=O)cc2)cc1		inactive
COc1ccc(-c2onc(C)c2C)cc1S(=O)(=O)N1CCC(C)CC1		inconclusive: 9.21% [signal inhibitor]
Cn1c(C(=O)NCc2cccc(F)c2)cc2cc(S(=O)(=O)N3CCCCC3)ccc21		inactive
CCCn1c(-c2ccc(OC)cc2)nc2nc3ccccc3nc21		inactive
COc1ccccc1CCNC(=O)c1cccn1-c1nnc(N2CCCCC2)s1		inconclusive: 3.87% [signal inhibitor]
CCOc1ccccc1NC(=O)CSc1cc(=O)n(CC)c2ccccc12		inconclusive: -2.61% [signal inhibitor]
O=c1n(CC2CO2)c(=O)n(CC2CO2)c(=O)n1CC1CO1 (configuration not stated)	inconclusive: 39.8 µM [rising, partial curve]	
O=c1c(-c2ccc(F)c(F)c2)nc2cncnc2n1Cc1ccccc1Cl		inactive: 1.71% [at 11.4 µM, scaled: untreated 0%, proteasome inhibitor 100%]
FC(F)(F)c1cc(CO[C@H]2CCCN[C@H]2c2ccccc2)cc(C(F)(F)F)c1		inconclusive: 0.467% [signal inhibitor]
Cc1cc(NC(=O)C2CCCN(S(=O)(=O)c3cccc4nonc34)C2)ccc1Br (configuration not stated)		inconclusive: 0.713% [signal inhibitor]
COc1ccc(OC)c(CNCc2c(C(=O)O)n(Cc3ccccc3)c3cc(OC)ccc23)c1		inconclusive: 0.966% [signal inhibitor]
COc1ccc2nc(NC(=O)c3cnccn3)sc2c1	inconclusive: 10 µM [signal inhibitor, partial curve]	
O=C1Nc2ccccc2Oc2cc(Oc3ccc(Cl)cc3)ccc21		inconclusive: 2.73% [signal inhibitor]
CCC(=O)N1CCc2cc(S(=O)(=O)NC(CC(C)C)C(=O)Nc3ccc(CC)cc3)ccc21 (configuration not stated)		inconclusive: 0.212% [signal inhibitor]
CCOC(=O)c1ccc(NC(=O)C2CCCN(c3ncnc4onc(C)c34)C2)cc1 (configuration not stated)		inconclusive: -2.8% [signal inhibitor]
COc1cccc(-c2nc(CS(=O)CC(=O)NCc3ccc4c(c3)OCO4)c(C)o2)c1 (configuration not stated)		inconclusive: 2.34% [signal inhibitor]
